Literature values as cited in patent US9539367B2, “Gallium inhibits biofilm formation” (priority 2003, dated 2017).

Target: RR tyrosyl radical (Mus musculus, UniProt P11157)
Details: cell free extract of mammalian L1210 cells; Narasimhan et al., 1992; read-out: concentration required to decrease the EPR peak of the RR tyrosyl radical by 50%; cited from earlier work

RR tyrosyl radical, sequence (P11157 whole entry): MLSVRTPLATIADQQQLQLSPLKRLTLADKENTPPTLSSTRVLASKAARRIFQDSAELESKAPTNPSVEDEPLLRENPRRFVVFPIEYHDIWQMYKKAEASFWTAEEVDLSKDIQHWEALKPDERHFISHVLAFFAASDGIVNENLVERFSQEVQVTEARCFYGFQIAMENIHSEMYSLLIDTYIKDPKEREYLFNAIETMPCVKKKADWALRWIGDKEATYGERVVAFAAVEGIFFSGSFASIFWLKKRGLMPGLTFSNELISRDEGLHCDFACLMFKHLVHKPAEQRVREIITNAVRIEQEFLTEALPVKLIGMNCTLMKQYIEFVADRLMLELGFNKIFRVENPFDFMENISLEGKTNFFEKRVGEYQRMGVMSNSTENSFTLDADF

## [Ga+3] [gallium]
  IC50: 16 mM
